The record followed here is the supplement of paper PMC11181314.

This is one part of the list. Single values of this set are uncertain.

This experiment deals with U2OS. The experiment in a line: Cell Painting induction (percent of morphological features significantly changed vs DMSO); higher = stronger morphological change. As to conditions: 10 µM, 20 h. The procedure:
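Cell Painting assay in U2OS cells: compounds at 10 µM for 20 h, six dyes, 579 robust CellProfiler features as Z-scores vs DMSO median (MAD). Induction is the % of significantly changed features (active if ≥5%); relative cell count is in % of DMSO. The primary run holds DCM compounds preselected for induction ≥10%; the confirmation repeat defines active compounds (370 of 549). Replicate agreement is low, attributed to precipitation.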

Where [1] appears, read: run: primary screen (compounds selected for induction >=10%).
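Note: stains mark DNA, RNA and nucleoli, ER, actin, Golgi, plasma membrane and mitochondria, read by high-content imaging, with DMSO controls at matching solvent concentration.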

Take `COc1ccc(C)cc1NC(=O)CSc1nc2ccccc2nc1N1CCCCC1`: the “Cell Painting induction” value is, setting by setting: (run: confirmation repeat) active: 9.2%; under setting [1], 13%.

Take `COc1ccc(C(=O)NC(=S)N2CCN(c3ccccc3OC)CC2)cc1`: the “Cell Painting induction” value reads like this: (run: confirmation repeat) active: 6%; under setting [1], 11.7%.

Regarding `O=c1c(S(=O)(=O)c2ccc(Cl)cc2)cn(Cc2ccccc2F)c2ccc(F)cc12`, the “Cell Painting induction” value (run: confirmation repeat) was active: 22.5% and the “Cell Painting induction” value under setting [1] amounted to 20.9%.

Take `CCOc1ccc(C(=O)Cc2cc3cccc(OC)c3oc2=O)cc1`: the “Cell Painting induction” value was inactive: 4.8% (run: confirmation repeat) and 11.4% under setting [1].

As for `COc1ccc(NC(=O)Cn2cnc3c(nnn3-c3ccc(C)cc3)c2=O)cc1`, the “Cell Painting induction” value reads like this: (run: confirmation repeat) inactive: 0.3%; under setting [1], 13.6%.

Regarding `COc1ccc(-c2noc(CC(=O)Nc3ccc(C)cc3Cl)n2)cc1`, the “Cell Painting induction” value runs as follows: (run: confirmation repeat) inactive: 0.2%; under setting [1], 11.9%.

For `O=C(NCCN1CCN(Cc2ccccc2)CC1)c1ccc(CS(=O)(=O)c2ccc(Br)cc2)o1`, the “Cell Painting induction” value reads like this: (run: confirmation repeat) active: 9.5%; under setting [1], 10.7%.

For the compound `COc1cc(Nc2nc3ccc(Cl)cc3n3cnnc23)cc(OC)c1OC`, the “Cell Painting induction” value by setting is: (run: confirmation repeat) active: 65.1%; under setting [1], 17.3%.

Take `CCOc1cc(C#N)c(NC(=O)CSc2nnnn2-c2ccc(OC)cc2)cc1OCC`: the “Cell Painting induction” value is inactive: 4.7% (run: confirmation repeat) and 12.1% under setting [1].

Regarding `COC(=O)c1c(NC(=O)c2c(OC)cccc2OC)sc2c1C(C(=O)OC)CC2` (stereo not drawn), the “Cell Painting induction” value (run: confirmation repeat) is inactive: 4.5% and the “Cell Painting induction” value under setting [1] was determined as 15.4%.

For the compound `CCOC(=O)C1=C(Nc2cccc3ccccc23)SCC1=O`, the “Cell Painting induction” value is, setting by setting: (run: confirmation repeat) inactive: 1.9%; under setting [1], 11.9%.

On to `CCOC(=O)c1ccc(NC2c3ccccc3C(=O)N2c2ccccn2)cc1` (stereo not drawn), for which the “Cell Painting induction” value (run: confirmation repeat) is inactive: 3.1% and the “Cell Painting induction” value under setting [1] turned out to be 20%.

On to `COc1cccc2cc(C(C)N(CCCN3CCOCC3)C(=S)Nc3ccccc3C)oc12` (stereo not drawn), for which the “Cell Painting induction” value runs as follows: (run: confirmation repeat) inactive: 3.8%; under setting [1], 10.4%.

Consider `CC(C)c1ccc(S(=O)(=O)c2nnn3c2nc(N2CCCCC2)c2ccccc23)cc1`, for which the “Cell Painting induction” value runs as follows: (run: confirmation repeat) inactive: 2.2%; under setting [1], 10.5%.
